Experimental findings from a collection of fitness landscapes (doi:10.1126/science.1257360) are described below.

This is one part of the list.

B1: PhoQ; a variant is named by its letters at X, in order, P23837 (parent)
chain: MKKLLRLFFPLSLRVRFLLATAAVVLVLSLAYGMVALIGYSVSFDKTTFRLLRGESNLFYTLAKWENNKLHVELPENIDKQSPTMTLIYDENGQLLWAQRDVPWLMKMIQPDWLKSNGFHEIEADVNDTSLLLSGDHSIQQQLQEVREDDDDAEMTHSVAVNVYPATSRMPKLTIVVVDTIPVELKSSYMVWSWFIYVLSANLLLVIPLLWVAAWWSLRPIEALAKEVRELEEHNRELLNPATTRELTSLVRNLNRLLKSERERYDKYRTTLTDLTHSLKTPLXXLQXXLRSLRSEKMSVSDAEPVMLEQISRISQQIGYYLHRASMRGGTLLSRELHPVAPLLDNLTSALNKVYQRKGVNISLDISPEISFVGEQNDFVEVMGNVLDNACKYCLEFVEISARQTDEHLYIVVEDDGPGIPLSKREVIFDRGQRVDTLRPGQGVGLAVAREITEQYEGKIVAGESMLGGARMEVIFGRQHSAPKDE

The variants in this assay derive from B1. Briefly: enrichment ratio after two sorts for PhoP signalling (ratio (wild type AVST 3.29)); higher = more functional. The note with it: with PhoP (E. coli).
With EGCP, the enrichment ratio is ≤ 0.25.

For the variant VSNH, the enrichment ratio turned out to be 0.52.

Turning to DVHV, the enrichment ratio is ≤ 0.25.

For the variant ESPK, the enrichment ratio is ≤ 0.25.

Take YIKL: the enrichment ratio is ≤ 0.25.

For the variant HNHR, the enrichment ratio is ≤ 0.25.

As for HFMQ, the enrichment ratio is ≤ 0.25.

With VCQG, the enrichment ratio is ≤ 0.25.

Consider RICI, for which the enrichment ratio was ≤ 0.25.

Consider HTNK, for which the enrichment ratio was ≤ 0.25.

With ILSC, the enrichment ratio was ≤ 0.25.

Take HSIQ: the enrichment ratio was ≤ 0.25.

KYMI: the enrichment ratio is ≤ 0.25.

Turning to DESW, the enrichment ratio was ≤ 0.25.

As for DPGI, the enrichment ratio was ≤ 0.25.

Regarding HGII, the enrichment ratio is ≤ 0.25.

For the variant YRAR, the enrichment ratio is ≤ 0.25.

Turning to QYCH, the enrichment ratio is ≤ 0.25.

For the variant DATY, the enrichment ratio is ≤ 0.25.

For the variant CFPW, the enrichment ratio is ≤ 0.25.

Turning to GSYS, the enrichment ratio was ≤ 0.25.

Consider PYQE, for which the enrichment ratio was ≤ 0.25.

Consider LMCC, for which the enrichment ratio was ≤ 0.25.

Regarding WFYL, the enrichment ratio is ≤ 0.25.

As for WFFK, the enrichment ratio was ≤ 0.25.

Take NIWK: the enrichment ratio was ≤ 0.25.

VQGK: the enrichment ratio was ≤ 0.25.

As to KNDC, the enrichment ratio is ≤ 0.25.

As for PGNT, the enrichment ratio was ≤ 0.25.

Take IKRA: the enrichment ratio was ≤ 0.25.

For the variant TDIP, the enrichment ratio is ≤ 0.25.

On to ITWG, for which the enrichment ratio was ≤ 0.25.

As to ETPF, the enrichment ratio is ≤ 0.25.

As to NPCM, the enrichment ratio was ≤ 0.25.

As for VTIE, the enrichment ratio was ≤ 0.25.

Regarding QSMA, the enrichment ratio was ≤ 0.25.

In the case of FIWT, the enrichment ratio is ≤ 0.25.

Regarding YERN, the enrichment ratio was ≤ 0.25.

Consider FEIT, for which the enrichment ratio was 1.84.

MECG: the enrichment ratio was 9.16.

Regarding YTVH, the enrichment ratio is ≤ 0.25.

For the variant HYTH, the enrichment ratio was ≤ 0.25.

As for DFPS, the enrichment ratio was ≤ 0.25.

Take ECGA: the enrichment ratio was ≤ 0.25.

For MHKS, the enrichment ratio is ≤ 0.25.

Take ALSD: the enrichment ratio is ≤ 0.25.

With RPWA, the enrichment ratio was ≤ 0.25.

Regarding HLPF, the enrichment ratio is ≤ 0.25.

For WTIA, the enrichment ratio is ≤ 0.25.

Consider DWEP, for which the enrichment ratio was ≤ 0.25.

Consider RNKY, for which the enrichment ratio is ≤ 0.25.

As for PNGT, the enrichment ratio was ≤ 0.25.

With RIMD, the enrichment ratio was ≤ 0.25.

Consider VEVP, for which the enrichment ratio is ≤ 0.25.

Take QRAD: the enrichment ratio is ≤ 0.25.

Turning to RCLS, the enrichment ratio is ≤ 0.25.

With NESV, the enrichment ratio was ≤ 0.25.

As for NYHV, the enrichment ratio is ≤ 0.25.

As to RWMC, the enrichment ratio is ≤ 0.25.

For the variant KTQY, the enrichment ratio was ≤ 0.25.

For the variant EFAY, the enrichment ratio is ≤ 0.25.

Consider YHCH, for which the enrichment ratio is ≤ 0.25.

Take HNDR: the enrichment ratio is ≤ 0.25.

For KGDS, the enrichment ratio was ≤ 0.25.

Consider HCFY, for which the enrichment ratio is ≤ 0.25.

On to SFHV, for which the enrichment ratio was ≤ 0.25.

For the variant ISCT, the enrichment ratio was ≤ 0.25.

Consider SNEN, for which the enrichment ratio was ≤ 0.25.

On to LKMQ, for which the enrichment ratio was ≤ 0.25.

Take KHSF: the enrichment ratio was ≤ 0.25.

TPFQ: the enrichment ratio was ≤ 0.25.

GWFQ: the enrichment ratio was ≤ 0.25.

GWCP: the enrichment ratio was ≤ 0.25.

Turning to DMST, the enrichment ratio is ≤ 0.25.

Consider QSTF, for which the enrichment ratio is ≤ 0.25.

EVCP: the enrichment ratio was ≤ 0.25.

As for FLFN, the enrichment ratio was ≤ 0.25.

Turning to TSDN, the enrichment ratio is ≤ 0.25.

As for WPAV, the enrichment ratio was ≤ 0.25.

In the case of MDMH, the enrichment ratio was ≤ 0.25.

Consider PGKS, for which the enrichment ratio was ≤ 0.25.

In the case of SCFR, the enrichment ratio is 0.298.

As for PSHC, the enrichment ratio is ≤ 0.25.

Regarding WNIR, the enrichment ratio is ≤ 0.25.

On to HRHD, for which the enrichment ratio is ≤ 0.25.

On to SENH, for which the enrichment ratio was 3.92.

As to YHCN, the enrichment ratio was ≤ 0.25.

As for WEDP, the enrichment ratio was ≤ 0.25.

As for VARN, the enrichment ratio is ≤ 0.25.

Turning to GDGR, the enrichment ratio is ≤ 0.25.

For the variant TQHQ, the enrichment ratio amounted to 13.8.

In the case of TSYQ, the enrichment ratio turned out to be 9.35.

Consider TYPH, for which the enrichment ratio is ≤ 0.25.

YPYR: the enrichment ratio was found to be 0.406.

KLEI: the enrichment ratio was ≤ 0.25.

Take GGFC: the enrichment ratio was ≤ 0.25.

For TYWF, the enrichment ratio was ≤ 0.25.

For the variant ANWP, the enrichment ratio is ≤ 0.25.

Take VRVE: the enrichment ratio is ≤ 0.25.

With KKRY, the enrichment ratio was ≤ 0.25.

On to IFRA, for which the enrichment ratio is ≤ 0.25.

For MDPY, the enrichment ratio is ≤ 0.25.

With HNYM, the enrichment ratio is ≤ 0.25.

With PYIS, the enrichment ratio is ≤ 0.25.

On to VAST, for which the enrichment ratio was ≤ 0.25.

TEVH: the enrichment ratio is 16.3.

Take HDDR: the enrichment ratio is ≤ 0.25.

On to TPGG, for which the enrichment ratio is ≤ 0.25.

As for AWPW, the enrichment ratio is ≤ 0.25.

For SGHN, the enrichment ratio is ≤ 0.25.

Turning to TKQP, the enrichment ratio is ≤ 0.25.

Regarding PCYD, the enrichment ratio was ≤ 0.25.

Consider GIAL, for which the enrichment ratio came out at 13.

In the case of QYMN, the enrichment ratio was ≤ 0.25.

Regarding GMSQ, the enrichment ratio was ≤ 0.25.

As to VLKS, the enrichment ratio is ≤ 0.25.

Turning to AMVR, the enrichment ratio was found to be 2.19.

Consider TQQI, for which the enrichment ratio worked out at 11.5.

As for VTQN, the enrichment ratio is ≤ 0.25.

With MRNY, the enrichment ratio was ≤ 0.25.

Take LEWY: the enrichment ratio was ≤ 0.25.

Regarding IHHD, the enrichment ratio is ≤ 0.25.

For MALL, the enrichment ratio amounted to 16.2.

For the variant YYWQ, the enrichment ratio was ≤ 0.25.

Take WKTS: the enrichment ratio was ≤ 0.25.

As to GWEF, the enrichment ratio is ≤ 0.25.

As to TMLV, the enrichment ratio is 4.6.

With NTMQ, the enrichment ratio is ≤ 0.25.

For WPWY, the enrichment ratio was ≤ 0.25.

ESCR: the enrichment ratio is ≤ 0.25.

Consider WDFV, for which the enrichment ratio is ≤ 0.25.

In the case of VWVI, the enrichment ratio was ≤ 0.25.

On to TCMI, for which the enrichment ratio came out at 15.

Regarding TVHQ, the enrichment ratio was ≤ 0.25.

On to VAPA, for which the enrichment ratio is ≤ 0.25.

Regarding QSIP, the enrichment ratio is ≤ 0.25.

Regarding AFGQ, the enrichment ratio was ≤ 0.25.

Take HFCP: the enrichment ratio was ≤ 0.25.

In the case of ALPN, the enrichment ratio is ≤ 0.25.

Regarding RVIE, the enrichment ratio is ≤ 0.25.

WLKD: the enrichment ratio is ≤ 0.25.

Regarding GEHW, the enrichment ratio was ≤ 0.25.

Take MYPM: the enrichment ratio was ≤ 0.25.

On to YDFH, for which the enrichment ratio was ≤ 0.25.

As for HHQQ, the enrichment ratio was ≤ 0.25.

On to HSRQ, for which the enrichment ratio was ≤ 0.25.

For GMVR, the enrichment ratio is ≤ 0.25.

As for TYIG, the enrichment ratio was ≤ 0.25.

As for NDHT, the enrichment ratio was ≤ 0.25.

For the variant HTTG, the enrichment ratio is ≤ 0.25.

Consider DGGI, for which the enrichment ratio was ≤ 0.25.

For the variant DCPA, the enrichment ratio was ≤ 0.25.

On to KWLP, for which the enrichment ratio is ≤ 0.25.
